Assay results published in PubChem BioAssay AID504333 (National Center for Advancing Translational Sciences (NCATS), 2011).
Values joined by “and” are separate entries in the source; they are usually repeats but may differ in a detail not shown here. Equal values may be shown once. Hit rate of the full screen: of about 360,000 compounds, about 16,000 (4.4%) were called active. The inconclusive results got no clear call from the source; some entries with a clear call stand among them for comparison. The call rests on the fitted dose curve; in most records, active means well fitted inhibition curve with a large enough effect; inconclusive means small, poorly fitted or top-dose-only effect; inactive means no such curve, though single readings can be large or run the other way. A potency beside an inconclusive call is a rough fit, not a confirmed value. Where a structure was tested more than once in an assay, its records may differ in their call.

target: Bromodomain adjacent to zinc finger domain protein 2B (Homo sapiens) (UniProt Q9UIF8); assay: qHTS Assay for Inhibitors of BAZ2B; conditions: AlphaScreen BAZ2B-H3K14Ac peptide displacement; activity change, negative = inhibition: at 114 µM (top of the series); further: nearly all actives have a fitted effect of over 60% in size
Chain of UniProt Q9UIF8 (Q9UIF8 whole entry, looked up, the tested form may be a part): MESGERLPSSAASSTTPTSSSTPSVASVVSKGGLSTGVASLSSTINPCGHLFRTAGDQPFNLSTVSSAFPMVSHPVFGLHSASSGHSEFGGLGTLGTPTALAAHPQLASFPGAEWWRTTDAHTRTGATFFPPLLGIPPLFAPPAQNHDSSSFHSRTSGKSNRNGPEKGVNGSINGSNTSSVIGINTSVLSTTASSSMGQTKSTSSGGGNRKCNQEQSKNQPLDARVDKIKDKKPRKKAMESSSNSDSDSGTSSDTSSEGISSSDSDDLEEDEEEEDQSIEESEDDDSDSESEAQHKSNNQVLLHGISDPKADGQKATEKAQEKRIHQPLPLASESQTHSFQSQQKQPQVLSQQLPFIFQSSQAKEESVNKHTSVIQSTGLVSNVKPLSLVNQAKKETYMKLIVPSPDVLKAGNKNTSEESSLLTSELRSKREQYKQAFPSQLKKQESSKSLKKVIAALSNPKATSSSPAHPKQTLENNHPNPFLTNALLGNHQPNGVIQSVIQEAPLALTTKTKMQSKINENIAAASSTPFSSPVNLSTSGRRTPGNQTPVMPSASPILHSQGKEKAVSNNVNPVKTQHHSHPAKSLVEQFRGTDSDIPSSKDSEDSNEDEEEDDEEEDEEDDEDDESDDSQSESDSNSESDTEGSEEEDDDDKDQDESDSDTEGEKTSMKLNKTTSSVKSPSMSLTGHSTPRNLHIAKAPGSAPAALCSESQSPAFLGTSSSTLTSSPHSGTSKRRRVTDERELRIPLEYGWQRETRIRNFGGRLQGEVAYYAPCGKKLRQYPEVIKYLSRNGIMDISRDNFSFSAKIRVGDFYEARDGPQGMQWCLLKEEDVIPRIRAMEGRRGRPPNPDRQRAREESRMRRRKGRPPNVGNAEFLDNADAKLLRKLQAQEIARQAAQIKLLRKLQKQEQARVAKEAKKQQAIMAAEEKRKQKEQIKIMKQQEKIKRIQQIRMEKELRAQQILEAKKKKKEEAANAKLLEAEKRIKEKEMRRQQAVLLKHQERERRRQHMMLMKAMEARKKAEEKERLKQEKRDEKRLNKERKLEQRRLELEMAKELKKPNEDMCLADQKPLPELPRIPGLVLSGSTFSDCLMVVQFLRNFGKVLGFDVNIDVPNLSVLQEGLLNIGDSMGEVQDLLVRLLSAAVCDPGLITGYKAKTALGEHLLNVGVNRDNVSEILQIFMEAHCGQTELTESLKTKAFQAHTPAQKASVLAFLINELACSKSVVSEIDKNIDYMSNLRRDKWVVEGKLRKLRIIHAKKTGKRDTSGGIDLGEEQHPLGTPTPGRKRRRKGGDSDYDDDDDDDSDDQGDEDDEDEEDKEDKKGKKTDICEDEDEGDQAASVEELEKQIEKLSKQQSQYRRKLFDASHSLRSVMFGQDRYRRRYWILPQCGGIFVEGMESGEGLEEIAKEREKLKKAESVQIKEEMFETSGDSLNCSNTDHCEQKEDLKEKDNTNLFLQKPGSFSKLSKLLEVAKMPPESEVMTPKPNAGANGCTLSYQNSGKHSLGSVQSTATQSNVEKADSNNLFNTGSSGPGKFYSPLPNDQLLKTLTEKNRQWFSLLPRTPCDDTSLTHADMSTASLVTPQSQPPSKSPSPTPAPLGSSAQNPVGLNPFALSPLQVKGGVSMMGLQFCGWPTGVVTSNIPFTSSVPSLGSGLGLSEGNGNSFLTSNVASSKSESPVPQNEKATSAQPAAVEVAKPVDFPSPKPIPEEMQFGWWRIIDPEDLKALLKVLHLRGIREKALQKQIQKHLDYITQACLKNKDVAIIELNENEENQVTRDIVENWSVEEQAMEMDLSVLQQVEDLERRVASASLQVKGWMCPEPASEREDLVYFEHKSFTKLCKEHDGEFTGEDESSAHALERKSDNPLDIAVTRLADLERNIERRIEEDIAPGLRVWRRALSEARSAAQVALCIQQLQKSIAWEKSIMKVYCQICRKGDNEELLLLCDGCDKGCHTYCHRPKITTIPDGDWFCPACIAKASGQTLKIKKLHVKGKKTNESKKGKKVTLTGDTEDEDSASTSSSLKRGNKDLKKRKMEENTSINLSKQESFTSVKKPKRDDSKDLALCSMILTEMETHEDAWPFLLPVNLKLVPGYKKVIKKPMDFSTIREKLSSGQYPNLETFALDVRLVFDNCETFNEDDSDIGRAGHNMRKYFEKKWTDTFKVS
In short: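 Inhibition is scored as reduced AlphaScreen emission. The BAZ2B/b-H3(5-23)K14Ac complex (50 nM each) in PBS pH 7.4, 0.01% Tween-20 meets compound (up to 110 uM) for 30 min at RT before bead addition.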
On the % scale 0 is the no-effect control and ±100 the full control effect; potency means the concentration at half of the fitted maximal effect; tags describe the fitted curve by direction and shape.

Compound | Potency | activity change, negative = inhibition
Cn1nnc2c(N3CCN(c4ccccc4Cl)CC3)ncnc21 | inactive | 
O=C(Nc1ccc2oc(-c3ccccc3F)nc2c1)c1ncn[nH]1 | inconclusive: 89.1 µM [inhibitor, single point] | 
CC(C)(C)c1ccc(-c2nc(SCCCOc3ccccc3)n3[nH]c(=O)cc3n2)cc1 | active: 50.1 µM | 
O=[N+]([O-])c1c(Nc2ccc(O)cc2)cc(Cl)c2nonc12 | inconclusive: 39.8 µM [inhibitor, full curve] | 
O=C1/C(=C\c2ccco2)SC(=S)N1C1CCCCC1 | active: 10 µM | 
CC1=CC(=O)C=C(C)C1=NOC(=O)c1cccc([N+](=O)[O-])c1 | inconclusive: 100 µM [inhibitor, single point] | 
N#Cc1ccccc1Cn1cc(/C=C/[N+](=O)[O-])c2ccccc21 | inconclusive: 39.8 µM [inhibitor, partial curve] | 
CCOc1ccc2[nH]c(=O)c(CN(Cc3nnnn3Cc3ccco3)C3CCCCC3)cc2c1 | active: 44.7 µM | 
O=C(O)CC1c2ccccc2S(=O)(=O)N1Cc1ccccc1 (stereo unspecified) | inactive | 
Oc1ccc(N=Nc2ccc3c(c2)OCCO3)c(O)c1 | inconclusive: 10 µM [inhibitor, partial curve] | 
Cc1cc(C)c2c(C)c(C(=O)Nc3c(C)n(C)n(-c4ccccc4)c3=O)oc2c1 | inactive | 
O=C(O)c1ccc(C[n+]2c(-c3ccccc3)csc2Nc2ccccc2)cc1 | active: 39.8 µM | 
CCOC(=O)C1(Cc2cccc(Cl)c2)CCCN(C(=O)c2c(CC)noc2C)C1 (stereo unspecified) | inactive | 
CC(/C=N/NC(=O)c1n[nH]c2c1CCC2)=C\c1ccccc1 | inactive | 
CCC(=O)NC(c1ccco1)c1cc(Cl)c2cccnc2c1O (stereo unspecified) | active: 44.7 µM | 
Cc1cc(C)n(/N=C/c2ccccc2O)c(=O)c1 | active: 50.1 µM | 
CCCNC(=O)c1ccc2nc(CCc3ccccc3)oc2c1 | inactive | 
COc1ccc(OC)c(NC(=O)CSc2nc(N3CCOCC3)nc(N3CCOCC3)n2)c1 | inconclusive: 70.8 µM [inhibitor, single point] | 
CC(C)=NNc1nc(-c2ccc(N3C(=O)CCC3=O)cc2)cs1 | inconclusive: 50.1 µM [inhibitor, partial curve] | 
COc1ccccc1NC(=S)NC(C)C(c1cccs1)N1CCOCC1 (stereo unspecified) | inconclusive: 79.4 µM [inhibitor, single point] | 
O=C1N(Cc2cccnc2)C[C@@H]2C[C@@H](c3cccc(Oc4ccccc4)c3)N3CCC[C@@]123 | inconclusive: 70.8 µM [inhibitor, single point] | 
CN(C)S(=O)(=O)c1cccc(NC(=S)NNC(=O)c2cc3ccccc3cc2O)c1 | inconclusive: 39.8 µM [inhibitor, partial curve] | 
O=C(NCc1ccccc1)/C(=C\c1ccccc1)NC(=O)c1ccco1 | inactive | 
COC(=O)CCC(=O)NC1CC(C)(C)Cc2c1cnn2-c1ccc(F)cc1 (stereo unspecified) | inconclusive: 89.1 µM [inhibitor, single point] | 
CC(C)(C)c1cc(Cl)ccc1OCCOCCN1CCCC1 | inconclusive: 89.1 µM [inhibitor, single point] | 
COc1ccc(C2=NS(=O)(=O)N(C)C(C(=O)Nc3ccc(OC)c(OC)c3)=C2)cc1 | inconclusive: 44.7 µM [inhibitor, partial curve] | 

Compound | Potency | activity change, negative = inhibition
Cc1ccc(C(=O)c2c(NC(=O)c3cccnc3)sc3c2CCCC3)cc1 | inconclusive: 25.1 µM [inhibitor, full curve] | 
Cc1cc(C(=O)OCC(=O)NC2CC2)c2ccccc2n1 | inactive | 
CCn1ccnc1C(O)c1ccc(N(C)C)cc1 (stereo unspecified) |  | inconclusive: -41.6% [inhibitor]
Cc1cc2c(cc1S(=O)(=O)N1CCCCC1)OCC(=O)N2 | inactive and active: 79.4 µM | 
COc1cc2c(cc1OC)C(C)N(C(=O)C1=NN(c3cccc(C)c3)C(=O)CC1)CC2 (stereo unspecified) | inactive | 
COc1ccccc1Oc1c(C)oc2cc(OC(=O)c3ccco3)ccc2c1=O | inactive | 
Cc1ccc(-c2c(C)n3c4c(=O)n(C)c(=O)n(C)c4nc3n2CCO)cc1 | inactive | 
CN(C)CCOCCP(=O)(c1ccccc1)c1ccccc1 | inactive | 
COCCN(C(=O)Cc1cccs1)c1nnc(-c2ccncc2)s1 | active: 79.4 µM | 
CC(C)c1ccc(S(=O)(=O)/N=C2/C=CC(=O)c3ccccc32)cc1 | active: 7.94 µM | 
O=C(C1CCC(CNS(=O)(=O)c2cccc3cccnc23)CC1)N1CCCC1 (stereo unspecified) | inactive | 
COc1ccc(Cl)cc1S(=O)(=O)n1cnc2ccccc21 | inactive | 
O=C(CSc1nnnn1-c1cccc2c1CCCC2)NC1CCCC1 | inactive | 
Cn1c(=O)cc(SCC(=O)NCCN2CCN(c3ccccc3F)CC2)c2cc(Cl)ccc21 | inconclusive: 89.1 µM [inhibitor, single point] | 
COc1ccc(OC)c(/C=N/NC(=O)c2[nH]nc3c2CCc2ccccc2-3)c1 | inactive | 
CCCCN1CC2([N+](=O)[O-])C=CC(=O)C([N+](=O)[O-])(C1)C2CC(=O)c1ccccc1 (stereo unspecified) | inactive | 
Cc1ccc(C2=Nc3ccccc3SC(c3cccc([N+](=O)[O-])c3)C2)cc1 (stereo unspecified) | active: 22.4 µM | 
O=C(Cc1ccccc1)Nn1c(O)c(/C=C2\C=Nc3ccccc32)sc1=S | inactive | 
COc1ccc(-c2ccc(NS(=O)(=O)c3ccc(C(C)=O)cc3)cc2)nn1 | inactive | 
CCOC(=O)C1=C(C)NC(=O)NC1c1ccc([N+](=O)[O-])o1 (stereo unspecified) | inactive | 
COC(CNC(=O)c1ccc2c3c(onc13)-c1ccccc1C2=O)OC | inconclusive: 28.2 µM [inhibitor, partial curve] | 
O=C(c1ccc(N2CCCC2)c([N+](=O)[O-])c1)N1CCN(CCO)CC1 | inconclusive: 89.1 µM [inhibitor, single point] | 
CCOCCCNC(=O)c1ccc(N2CC3CC(C2)c2cccc(=O)n2C3)c(NC(=O)Nc2cccc(OC)c2)c1 (stereo unspecified) | inactive | 
CN(C)c1ccc(/C=N/NC(=S)NCc2ccco2)cc1 | inconclusive: 44.7 µM [inhibitor, partial curve] | 
Cc1cccc(N2CSC3=C(C#N)C(c4ccc(C)o4)CC(=O)N3C2)c1 (stereo unspecified) | active: 44.7 µM | 
